# Assay results reported in the supplement of paper PMC3334620.
# Over roughly 33,000 sequences, “E-score (-0.5 to 0.5)” has its median near -0.043; the highest 2% begin near 0.37. The list shows a part of the results.
# Molecular target: T1, Upc2 (UniProt Q12151)
# T1 sequence: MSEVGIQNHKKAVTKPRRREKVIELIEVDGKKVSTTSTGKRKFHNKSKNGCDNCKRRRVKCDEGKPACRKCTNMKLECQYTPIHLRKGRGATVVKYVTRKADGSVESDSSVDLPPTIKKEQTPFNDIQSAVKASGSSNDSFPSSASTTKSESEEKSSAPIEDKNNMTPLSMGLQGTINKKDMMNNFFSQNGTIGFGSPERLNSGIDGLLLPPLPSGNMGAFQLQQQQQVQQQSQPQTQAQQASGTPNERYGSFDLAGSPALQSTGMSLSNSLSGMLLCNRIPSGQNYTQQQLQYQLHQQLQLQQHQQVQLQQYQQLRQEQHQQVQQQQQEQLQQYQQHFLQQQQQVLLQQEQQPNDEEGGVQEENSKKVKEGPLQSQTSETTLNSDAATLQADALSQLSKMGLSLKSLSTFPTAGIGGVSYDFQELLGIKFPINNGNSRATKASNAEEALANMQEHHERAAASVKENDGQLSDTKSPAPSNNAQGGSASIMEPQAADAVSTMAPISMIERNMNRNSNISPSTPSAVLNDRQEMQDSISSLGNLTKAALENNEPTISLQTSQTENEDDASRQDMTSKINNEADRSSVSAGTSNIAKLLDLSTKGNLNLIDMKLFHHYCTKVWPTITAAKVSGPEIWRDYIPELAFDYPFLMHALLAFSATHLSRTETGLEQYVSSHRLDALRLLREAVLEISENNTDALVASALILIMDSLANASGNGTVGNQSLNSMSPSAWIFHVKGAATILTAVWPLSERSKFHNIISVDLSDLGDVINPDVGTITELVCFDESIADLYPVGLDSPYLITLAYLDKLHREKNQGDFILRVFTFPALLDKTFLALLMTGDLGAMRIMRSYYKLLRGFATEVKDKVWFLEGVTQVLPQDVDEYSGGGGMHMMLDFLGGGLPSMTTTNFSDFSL
# Assay: PBM E-score (8-mer binding enrichment) (E-score (-0.5 to 0.5)); higher = stronger / more preferred TF binding; most listed sequences are background and not binding sites
# Settings: protein concentration: 200 nM; construct: GST-full length
# Procedure: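 Universal 'all 10-mer' protein binding microarrays (Agilent AMADID 015681) probed with GST-tagged S. cerevisiae TFs (full-length or DBD) made by in vitro transcription/translation (PURExpress), about 100-200 nM. Bound TF was detected with fluorescent anti-GST. Each ungapped 8-mer (which stands for itself and its reverse complement) is scored by the PBM enrichment score (E-score), a modified Wilcoxon-Mann-Whitney statistic from -0.5 to +0.5, computed with the Universal PBM Analysis Suite. Scale: above 0.35 generally sequence-specific binding.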
row,Sequence,PBM E-score
1,AGAGCGTA,0.223
2,TACGATGA,0.433
3,ACCCTACC,-0.102
4,AATGACGC,-0.0909
5,GACGCGCA,-0.0651
6,ATCGAGAG,0.0513
7,AGTGAGCA,-0.137
8,CGACGCGC,0.177
9,CGAACCGC,0.23
10,TATCATAA,0.086
11,AGGGGTAA,-0.0912
12,AACACCGG,0.0862
13,CGAGGCGC,0.163
14,AACCGGGG,-0.119
15,GATCAGGA,-0.154
16,GATAGATA,-0.0215
17,AAGATGGT,-0.0517
18,ACAGGACT,-0.151
19,CGAATTGA,0.111
20,GATTGCAC,-0.0715
21,CTCCACCC,-0.189
22,TGTGAAAA,-0.0936

row,Sequence,PBM E-score
1,ACATATAG,-0.144
2,AAGGAACT,-0.102
3,AGTATTGA,-0.153
4,CCTCTGCG,0.00482
5,AAACGACA,0.479
6,ACGTAAAG,0.308
7,CCTAGTCC,-0.329
8,TCTGTACA,0.12
9,AGATCTGA,-0.163
10,CGATTTTC,0.116
11,ACGCGTCG,0.284
12,CGCGTGTA,0.0108
13,TCCTTCAA,-0.24
14,ACGATGTG,0.272
15,TCCATCCA,-0.127
16,AGCTACGA,0.34
17,CATTCTCC,-0.131
18,AAGGCGGG,-0.138
19,CTCAGCCC,-0.249
20,GTCGCTCA,0.278
21,CCGGATGC,-0.0589
22,AAGGAGAA,0.112

row,Sequence,PBM E-score
1,ATACTCTG,0.147
2,ATAGTTGA,0.103
3,ACCCAACA,-0.221
4,CTTGATTC,-0.106
5,ACGAAGAG,0.324
6,AGAGCTAA,-0.126
7,ACGCTACT,0.0544
8,ATTTATAA,0.0439
9,CAGGCAGC,-0.324
10,AGATCATC,-0.0802
11,ATCTAATC,-0.0686
12,CTTGAGTA,-0.15
13,ACAGAAGG,-0.16
14,CTAGTAAG,-0.321
15,GAAGCAGC,-0.111
16,AGGTAGCC,-0.295
17,CATCGGCC,-0.173
18,CATATTGC,-0.274
19,ACAGCCTG,-0.167
20,CGGCACAC,-0.0638
21,CATGATGG,-0.253
22,GGTAGCAA,0.0291

row,Sequence,PBM E-score
1,AGTTAGAC,-0.026
2,ATAGATCA,-0.00424
3,CTGGCAAC,-0.236
4,AGTCAGAA,-0.141
5,TATCTAGA,0.0229
6,ATTGTTGA,-0.113
7,AAGTAGTG,-0.0715
8,ATAACACA,0.0511
9,ATGCAAGC,-0.19
10,CCTAGGAG,-0.273
11,TAATAGTA,0.104
12,ATCGGAAG,-0.0815
13,GGGCGGAA,-0.158
14,AACGGACT,0.0729
15,ACGGCACA,0.116
16,ACATCCAA,0.0397
17,GTCCTCCA,-0.13
18,GTTTATTA,0.256
19,CCCTAAAA,-0.133
20,GTCGGCCA,-0.0644
